Among all 310,000 compounds or so, about 14,000 (4.5%) showed an effect of 50% or more. The effect is printed as a negative number. This is one part of the list.
Target: human ether-à-go-go-related gene (hERG) potassium channel (human, UniProt Q12809)
Experiment: primary screen, population patch clamp on CHO cells stably expressing hERG
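Further: peak tail current of the secondary pulse compared with the same well before compound.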

human ether-à-go-go-related gene (hERG) potassium channel, sequence (Q12809 whole entry, looked up): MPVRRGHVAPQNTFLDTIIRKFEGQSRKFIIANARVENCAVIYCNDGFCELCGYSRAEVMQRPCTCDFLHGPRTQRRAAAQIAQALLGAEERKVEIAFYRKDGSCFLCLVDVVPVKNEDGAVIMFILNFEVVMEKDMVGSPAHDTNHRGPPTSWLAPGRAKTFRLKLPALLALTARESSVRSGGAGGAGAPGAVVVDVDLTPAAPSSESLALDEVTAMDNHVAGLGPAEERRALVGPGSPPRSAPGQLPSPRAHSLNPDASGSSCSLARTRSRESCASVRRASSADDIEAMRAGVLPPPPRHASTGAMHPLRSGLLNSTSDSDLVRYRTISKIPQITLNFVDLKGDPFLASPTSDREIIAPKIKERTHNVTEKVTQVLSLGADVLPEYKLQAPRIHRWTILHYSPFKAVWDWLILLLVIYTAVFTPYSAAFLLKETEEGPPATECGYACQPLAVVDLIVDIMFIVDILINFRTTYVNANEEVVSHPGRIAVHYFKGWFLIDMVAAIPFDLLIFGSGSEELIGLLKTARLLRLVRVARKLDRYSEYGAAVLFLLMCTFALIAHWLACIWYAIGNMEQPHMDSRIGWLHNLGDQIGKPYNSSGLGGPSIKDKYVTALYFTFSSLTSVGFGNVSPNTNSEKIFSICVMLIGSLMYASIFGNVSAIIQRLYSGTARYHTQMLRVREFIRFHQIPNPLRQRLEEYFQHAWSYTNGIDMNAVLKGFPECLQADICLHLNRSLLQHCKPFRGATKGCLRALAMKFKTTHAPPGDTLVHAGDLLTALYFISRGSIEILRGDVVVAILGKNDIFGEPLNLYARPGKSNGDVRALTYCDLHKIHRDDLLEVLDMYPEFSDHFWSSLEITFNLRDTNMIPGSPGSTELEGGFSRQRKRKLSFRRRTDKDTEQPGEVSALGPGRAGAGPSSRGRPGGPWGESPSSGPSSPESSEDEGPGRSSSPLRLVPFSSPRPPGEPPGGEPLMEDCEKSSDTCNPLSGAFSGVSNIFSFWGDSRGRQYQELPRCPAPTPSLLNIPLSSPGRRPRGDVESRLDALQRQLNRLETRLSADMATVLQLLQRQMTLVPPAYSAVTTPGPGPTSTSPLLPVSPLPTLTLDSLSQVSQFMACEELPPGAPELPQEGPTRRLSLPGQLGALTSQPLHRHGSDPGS

SMILES	hERG current change (%, negative = inhibition) at 10uM
CCCc1ccc(OCc2nc(-c3ccc(NC(=O)c4cccs4)cc3)no2)cc1	1.52%
Cc1nnc(SCCOc2ccccc2)s1	9.54%
O=C1CSC(c2ccccn2)N1Cc1cn2ccccc2n1 (centres unmarked)	-4.27%
Cc1ccc(NC(=O)CC2NCCNC2=O)cc1Cl (centres unmarked)	24.9%
CCN(CC)C(=O)C1CCCN(C(=O)CCn2nnnc2CN2CCOCC2)C1 (centres unmarked)	17.7%
CCC(C)n1ncn(-c2ccc(N3CCN(c4ccc(OCC5COC(Cn6cncn6)(c6ccc(Cl)cc6Cl)O5)cc4)CC3)cc2)c1=O (centres unmarked)	21.2%
O=C(O)CCC(=O)Nc1nc2nccc(-c3ccccc3)n2n1	0.28%
O=C(c1cc(C(=O)N2CCN(c3ccc(F)cc3)CC2)cc([N+](=O)[O-])c1)N1CCN(c2ccc(F)cc2)CC1	-26.2%
O=C(O)c1cc(NS(=O)(=O)c2ccc(N3CCCCC3)c([N+](=O)[O-])c2)cc(C(=O)O)c1	-1.82%
Cc1ccc(-c2onc3ccc(C=O)cc23)cc1	-8.19%
Cc1ccc(N2CC(C(=O)Nc3ccccn3)CC2=O)cc1 (centres unmarked)	-10.7%
CC(NC(=O)c1ccccc1)c1nnc(SCC(=O)Nc2nnc(C3CC3)s2)n1C (centres unmarked)	2.96%
Cc1ccc(-c2csc(/C(C#N)=C/Nc3ccccc3SC(F)(F)F)n2)cc1	26.5%
Cc1ccc(F)cc1CNC(=O)C1CCC(=O)N(CCCN2CCCC2=O)C1 (centres unmarked)	14.6%
CCn1c(SCC(=O)Nc2ccc(C)cc2)nnc1-c1cnccn1	-31.8%
COc1ccc(NC(=O)c2cc(S(=O)(=O)N3CCCCC3)c[nH]2)cc1Cl	-0.251%
Cc1ccc(/C=N/NC(=O)COc2ccccc2-c2ccccc2)cc1	-3.49%
CCOCCOC(=O)C1=C(C)NC2=C(C(=O)CC(c3cccs3)C2)C1c1ccsc1 (centres unmarked)	4.4%
Cc1cc(O)c2/c(=N\N)c(-c3csc(C)n3)coc2c1	4.24%
Cn1cccc1-c1nc2ccc(NC(=O)c3cccs3)cc2[nH]1	-53.3%
CCOC(=O)N1CCN(C(=S)NC(=O)c2nn(C)cc2Br)CC1	22.1%
O=C(Nc1ccc(F)cc1)c1cccc2c1C(=O)N(CC1CCCO1)C2 (centres unmarked)	-45.4%

SMILES	hERG current change (%, negative = inhibition) at 10uM
CN1CCN(S(=O)(=O)c2ccc(N(C)Cc3cccs3)nc2)CC1	-11.7%
Cc1cccc(NC(=O)CCN2C(=O)C3C4C=CC(C4)C3C2=O)n1 (centres unmarked)	5.71%
Cc1ccc(C)c(OCCC(=O)OCC(=O)NC2CCCC2)c1	-2.45%
CC(Sc1nnc2c(n1)[nH]c1ccccc12)C(=O)N(C)C1CCCCC1 (centres unmarked)	-29.1%
CCCc1nn2c(=O)cc(CSCC(=O)Nc3ccc(C)cc3)nc2s1	3.95%
Cc1ccc(S(=O)(=O)NC(=O)c2cc(C)n(CC(c3ccccc3)N(C)C)c2C)cc1 (centres unmarked)	-1.14%
N#Cc1cc2ccccc2nc1SCc1cccnc1	-5.37%
CC(=O)Nc1sc(N/N=C/c2ccccc2)nc1-c1ccc(C)cc1	15.9%
Cc1ccc(CS(=O)Cc2ccc(C(=O)NC3CCC(C)CC3)o2)cc1 (centres unmarked)	-51%
CCC(=O)N1CCN(c2ccc(NC(=S)NC(=O)c3ccc(OC)c([N+](=O)[O-])c3)cc2)CC1	-15.7%
CCO[C@H]1OC(C(=O)N2CCOCC2)=C[C@@H](c2ccc(Br)cc2)[C@@H]1CCCO	-8.92%
Cl.O=C(c1cc2ccccc2o1)N1CCN(Cc2ccccc2)CC1	-32.6%
CS(=O)(=O)Nc1cccc(C(=O)CC2(O)C(=O)Nc3ccc(Br)cc32)c1 (centres unmarked)	14.3%
CCOc1cc(/C=C/c2cccc[n+]2C)ccc1O.[I-]	24.7%
O=C(CCNC(=O)c1ccco1)NCCN1C(=O)S/C(=C\c2ccc(F)cc2)C1=O	-9.54%
NS(=O)(=O)c1ccc(Nc2ccccc2)c([N+](=O)[O-])c1	-6.17%
Cc1c(-c2ccccc2)nc2ccccc2c1C(=O)O	2.56%
COCCn1c(-c2ccccc2)cc(C(=O)O)c1C	21.2%
CCC1=NNc2cccc3c(OC)ccc1c23	8.13%
CCCN1CNC(=S)N(c2cccc(C)c2C)C1	1.72%
COc1nccc(-c2ccc(F)cc2)c1C#N	-10.4%
CN(C)c1ccc(/C=C2/C(=O)NC(=O)N(CCc3ccc(F)cc3)C2=O)cc1	14.5%
